The values below come from the supplement of paper PMC11417369.

Some of the results follow.

The test system of this test is PfSIP2 AP2 domain 1 (GST-tagged). The test can be described thus: gcPBM binding intensity (ln(normalized median fluorescence intensity)); higher = stronger DNA binding. Put shortly: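 DNA-binding domains from P. falciparum, fused to GST and produced in E. coli, were put on an Agilent 4 × 180k double-stranded probe array for 1 h in 1× PBS holding 1% milk, 0.2 mg/ml BSA, 0.5% salmon testes DNA and 0.03% Triton X-100. Probes were primer-extended, 36 bp long and drawn from intergenic genomic regions, with negative controls included. After Alexa488 anti-GST antibody detection and a 488 nm scan, binding intensity was set as the highest Masliner-normalised natural-log median intensity across replicate spots of either probe orientation.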
Turning to “AAAAAAAAAAAAATTACACACATACATATAATAATA [CACACA_site8680]”, the “gcPBM binding intensity (ln)” value was determined as 7.06.

Take “ATATTAAGAATAAACAGTACATATAATAAATACCAT [XGTACX_site5933]”: the “gcPBM binding intensity (ln)” value is 6.92.

On to “TTTGTGTATATATAATGTACATTATATTTTTATTAT [XGTACX_site6506]”, for which the “gcPBM binding intensity (ln)” value was determined as 7.15.

“ATTAAAAAAAAAGAGCGTACAAATAATTACTTCTTT [XGTACX_site8262]”: the “gcPBM binding intensity (ln)” value came out at 6.83.

On to “TATAAATTTATAAATAGTACATATATTTATATATAT [XGTACX_site6433]”, for which the “gcPBM binding intensity (ln)” value was 7.36.

As to “TATATATATGGACACACACACACATATATATATATA [CACACA_site6121]”, the “gcPBM binding intensity (ln)” value amounted to 9.4.

For the sequence “AAAAAAAATATACATACATGCATACATAAGTTTCTA [TGCATGCA_site998]”, the “gcPBM binding intensity (ln)” value worked out at 6.98.

Take “AAACGTATGTTATTTACACACCCTTCCACTTTTATA [CACACA_site3337]”: the “gcPBM binding intensity (ln)” value came out at 6.8.

“TATAAAATAAGACATGCATGTTATACATATATATTT [TGCATGCA_site156]”: the “gcPBM binding intensity (ln)” value came to 6.84.

In the case of “CATTATTATTTTATAACACACACATATATATTATAT [CACACA_site8405]”, the “gcPBM binding intensity (ln)” value is 7.08.

For “ATGTTTTTTATTCTTCGTACGTATGAACGATAGTGT [XGTACX_site4225]”, the “gcPBM binding intensity (ln)” value stood at 7.3.

Consider “ATGTGCAAATATTAAAGTACTAAATTTTATTATTTT [XGTACX_site7306]”, for which the “gcPBM binding intensity (ln)” value was determined as 7.67.

On to “ATAAATACATATAAAAGTACACACACACACATATAT [XGTACX_site1744]”, for which the “gcPBM binding intensity (ln)” value worked out at 7.36.

As for “TGAAATTTCAATACATGTACATATAAAAAAAAAAAA [XGTACX_site4424]”, the “gcPBM binding intensity (ln)” value was 7.12.

On to “TGTATATGTGAAGCAAGGGATGCGGCAGACATAACA [CACACA_negctrl_site1339]”, for which the “gcPBM binding intensity (ln)” value is 7.07.

With “AAATTAAAAAAAAATAAATAAAAAAAAAAAAAAAAT [CACACA_negctrl_site1611]”, the “gcPBM binding intensity (ln)” value turned out to be 6.73.

With “TTTTTTTTTTCTACAAGTACATATTTTCATTTAACA [XGTACX_site6621]”, the “gcPBM binding intensity (ln)” value amounted to 6.97.

As to “AAAAAAAAAAAAAAATGTACATATATATATTATAAA [XGTACX_site518]”, the “gcPBM binding intensity (ln)” value stood at 7.47.

Turning to “TTTTTTTTTTTGTTCACACATATACTTTTATTTTGG [CACACA_site4250]”, the “gcPBM binding intensity (ln)” value stood at 7.07.

As for “AATGCTATCATTAATGCACACATTTAAACTTAATAT [CACACA_site5878]”, the “gcPBM binding intensity (ln)” value was found to be 7.09.

Regarding “TATAACGCTTGCAGCTGTACAAAAATAATCAAACTG [XGTACX_site2464]”, the “gcPBM binding intensity (ln)” value is 6.89.

Take “AAAAGATTTATACATACACACATATTATAGTCACAT [CACACA_site7701]”: the “gcPBM binding intensity (ln)” value worked out at 7.02.

Turning to “TTTGTTTTAAATATTATACACACGTAAAAGTAGAAT [CACACA_site214]”, the “gcPBM binding intensity (ln)” value stood at 7.43.

With “GGAAACCTTTTTTTTACACACAATATATTAATACTT [CACACA_site1403]”, the “gcPBM binding intensity (ln)” value stood at 7.06.

Take “TACACCCTATTTTTATGTACTTATTTGATTTACACA [XGTACX_site8172]”: the “gcPBM binding intensity (ln)” value worked out at 7.29.

With “ATATAAATACGGTGTGCACACACATAATATATATAT [CACACA_site2271]”, the “gcPBM binding intensity (ln)” value turned out to be 8.98.

On to “CAAATTTAAAAAAAATCACACACAGAAAAAAAAAAA [CACACA_site8728]”, for which the “gcPBM binding intensity (ln)” value was 6.78.

As to “CAAGAAAATGGACACACACACATATATATATATATA [CACACA_site6010]”, the “gcPBM binding intensity (ln)” value was 9.18.

As to “TGTATACGCATATGTACACACATATATATGTATATG [CACACA_site3087]”, the “gcPBM binding intensity (ln)” value was 7.25.

“GTGTAATTATCAGCATAAATATGGTACATACATAAA [CACACA_negctrl_site323]”: the “gcPBM binding intensity (ln)” value is 7.22.

For “TATACGAAATTGTGCACACATATATTTATGTATGTA [CACACA_site1509]”, the “gcPBM binding intensity (ln)” value is 9.13.

As for “AATACATAATAACATGTACACACATTCTTCTATAAA [CACACA_site9344]”, the “gcPBM binding intensity (ln)” value was determined as 7.08.

Take “TTAAAAGAATATAATGCACACATTATTTTATTTTAT [CACACA_site3772]”: the “gcPBM binding intensity (ln)” value was 7.03.

For “AAAAAAAACGAACACACACACATACAAAATCTATAT [CACACA_site6795]”, the “gcPBM binding intensity (ln)” value was determined as 7.24.

Regarding “TACCCACGTATATATATACACACTAATATACACCCA [CACACA_site9381]”, the “gcPBM binding intensity (ln)” value was 7.22.

In the case of “TTAAATGAAAAAATATGTACGTATAATAAGAAATAT [XGTACX_site6619]”, the “gcPBM binding intensity (ln)” value is 7.28.

Consider “GTATGAGTCGTAGAGTGTACTCTGGAGAAAACTACA [XGTACX_site4942]”, for which the “gcPBM binding intensity (ln)” value is 6.97.

With “TTTTTTCTTAGTTATACATGCAAAATAAATAAATAA [TGCATGCA_site410]”, the “gcPBM binding intensity (ln)” value was 7.13.

On to “TATTTTTTCTTAAACACACACATATATATATAGAAT [CACACA_site2836]”, for which the “gcPBM binding intensity (ln)” value came out at 7.17.

Regarding “ATTTATATATAATTTTGTACGAAAAAAATAAGGTAT [XGTACX_site3578]”, the “gcPBM binding intensity (ln)” value worked out at 7.42.

As to “TATATATTTATTAAATGTACATAACAAAAATGGTAT [XGTACX_site3577]”, the “gcPBM binding intensity (ln)” value stood at 7.41.

On to “TGCATACATAAATGTATATATTAATATATATCATAT [GTGCAC_negctrl_site252]”, for which the “gcPBM binding intensity (ln)” value turned out to be 6.96.

As for “AAATAAAGTAAAATATGTACATAAATTAAAACACAT [XGTACX_site8539]”, the “gcPBM binding intensity (ln)” value turned out to be 7.94.

On to “TATATTAAACATATATGTACATATTTTTTCTGAACA [XGTACX_site5390]”, for which the “gcPBM binding intensity (ln)” value was determined as 7.06.
